According to paper PMC7819943, “Rice protein-binding microarrays: a tool to detect cis-acting elements near promoter regions in rice”:
This is one part of the list.

The sequences below were run against T1, OsWOX13 (Oryza sativa, UniProt Q5QMM3 1-267) (assay: protein-binding microarray (RPBM); PBS, 2% BSA, 51.3 ng/ul salmon testes DNA, 50 uM zinc acetate, 200 nM TF, 25 C, 1 h; high values mean tight binding). Conditions: protein: recombinant; tags: N-terminal polyhistidine and DsRed monomer fusion (pET32a); label: CyDye5-dUTP incorporated in the synthesized complementary strand; 3' TTTTT single-stranded linker to array surface; dsDNA, one strand shown.
T1 sequence: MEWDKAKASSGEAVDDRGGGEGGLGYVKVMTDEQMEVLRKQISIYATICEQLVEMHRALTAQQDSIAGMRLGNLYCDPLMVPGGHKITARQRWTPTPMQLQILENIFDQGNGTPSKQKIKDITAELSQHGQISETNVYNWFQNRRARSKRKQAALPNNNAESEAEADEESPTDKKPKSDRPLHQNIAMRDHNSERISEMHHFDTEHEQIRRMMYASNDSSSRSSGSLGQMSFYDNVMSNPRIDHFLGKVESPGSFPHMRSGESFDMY
Procedure, shortened: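 Binding signal is defined as the fluorescence intensity of each feature in arbitrary units, read on an Axon 4000B scanner. Transcription factors with N-terminal polyhistidine and DsRed fusions came from E. coli BL21-CodonPlus and were purified on Ni–NTA. They were incubated at 200 nM for 1 h at 25 °C on a custom Agilent array that had been made double-stranded with Cy5-dUTP, with 50 µM zinc acetate present, and the array was washed.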

| Sequence | binding signal |
| --- | --- |
| TGGTGGCCCGGCGGGCGGGCGGGGCGGGGCGGACGAACGGCGGAGTCACCTAGTGCAG | 6740 fluorescence intensity (a.u.) |
| ATGCCAATCCGTGGGATAAATTGATTATGTGCTAATGAATCGGAGTCACCTAGTGCAG | 33000 fluorescence intensity (a.u.) |
| TATTCAATTATAGATTTAACGAAATTATACTGGTATTGTACGGAGTCACCTAGTGCAG | 37400 fluorescence intensity (a.u.) |
| AATTTTAACTGAATATTATCTAAACTTCAAATATGACTGGCGGAGTCACCTAGTGCAG | 13100 fluorescence intensity (a.u.) |
| GGCAACAGCAAATTAGTCACATTCTACCTTGAGGTAAGGTCGGAGTCACCTAGTGCAG | 3590 fluorescence intensity (a.u.) |
| TCTGATGTGAGGATAATCGGGGATGGCGTCTGTTTATCCTCGGAGTCACCTAGTGCAG | 3280 fluorescence intensity (a.u.) |
| AATTCAAATTTAAATTTGAATCGGATATATAAACTTTGACCGGAGTCACCTAGTGCAG | 12100 fluorescence intensity (a.u.) |
| TTAATAATTATTATGATGTGACAAAGAACATCGGATGCATCGGAGTCACCTAGTGCAG | 40000 fluorescence intensity (a.u.) |
| AATATAATTAAGTAATCAATACTATTATTATAAGTTGATACGGAGTCACCTAGTGCAG | 17200 fluorescence intensity (a.u.) |
| GAATCAATGATTTTCACTTTACATGTCAGAGAATTCAATTCGGAGTCACCTAGTGCAG | 9340 fluorescence intensity (a.u.) |
| TTTTATTAATTTAAAATACAATTATAGACGTGGGCCACTTCGGAGTCACCTAGTGCAG | 16200 fluorescence intensity (a.u.) |
| ACTATCCGAAATTTCACTCTAATCTACTTTCGTCCCACATCGGAGTCACCTAGTGCAG | 4140 fluorescence intensity (a.u.) |
| TCCTAATATAAAATTAATGGTTAAAGTTTGATAGAGGTACCGGAGTCACCTAGTGCAG | 7460 fluorescence intensity (a.u.) |
| TTTAGATTGGATTTCGTTATGTGTTTTCCCATGTCATTTACGGAGTCACCTAGTGCAG | 30300 fluorescence intensity (a.u.) |
| GAAAATTTTCCTATTTGGCCCTTTGATACAAAGGATTGGACGGAGTCACCTAGTGCAG | 3360 fluorescence intensity (a.u.) |
| TACAAATGAATCAATCAATGTGAATTGGCGAAATCTCCAACGGAGTCACCTAGTGCAG | 16700 fluorescence intensity (a.u.) |
| TTCCTGTTTCGCTTTAACTTGACTGCAATTCTGCAATCACCGGAGTCACCTAGTGCAG | 5770 fluorescence intensity (a.u.) |
| ATATAATTTAGATACTTACAATGTAAATACATGCCGACTACGGAGTCACCTAGTGCAG | 9240 fluorescence intensity (a.u.) |
| TTGACTTGATGTATAAATTTCTTTTCAATCTGTTACTTTACGGAGTCACCTAGTGCAG | 12000 fluorescence intensity (a.u.) |
| TGACCAAACTGATTGGAAGTTGGGGAGAGGCTAGGTTGTTCGGAGTCACCTAGTGCAG | 31600 fluorescence intensity (a.u.) |
| ATATAATAGATCTGGATAGATCTATTATAATCATTGGTTTCGGAGTCACCTAGTGCAG | 8790 fluorescence intensity (a.u.) |
| ATTAAATTTGAAAATTTATTAAATTGTGCTGATAAGTCAACGGAGTCACCTAGTGCAG | 14500 fluorescence intensity (a.u.) |
| TAGGAGATTATATTTAAATTAACTTTAAAGAGAAATCTTGCGGAGTCACCTAGTGCAG | 11600 fluorescence intensity (a.u.) |
